Laboratory results as given in the supplement of paper PMC12217912.
The other results are listed elsewhere or left out. Sequences were assembled here from the parent chain. Values near 0.05 are background.

B1: TEV protease; numbered along this chain (parent)
chain: MGESLFKGPRDYNPISSSICHLTNESDGHTTSLYGIGFGPFIITNKHLFRRNNGTLVVQSLHGVFKVKDTTTLQQHLVDGRDMIIIRMPKDFPPFPQKLKFREPQREERICLVTTNFQTKSMSSMVSDTSCTFPSGDGIFWKHWIQTKDGQCGSPLVSTRDGFIVGIHSASNFTNTNNYFTSVPKNFMELLTNQEAQQWVSGWRLNADSVLWGGHKVFMVKPEEPFQPVKEATQL

Variants of: B1
Assay: raw area under fraction-flipped curve 0-4 h after induction (AUC4h, not background-subtracted), DNA-recorder readout of cleavage of the substrate (dimensionless); higher = more cleavage of the substrate by the protease variant
Conditions: temperature: 34 °C; time window: 0-4 h after rhamnose induction
Protocol: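 In vivo DNA recorder in E. coli TOP10(DE3) ΔrhaA at 34 °C. Each TEVp single-site mutant (parent TEVp 0) is paired with a single-site variant of the 7-mer TEVs (canonical ENLYFQ|S). The substrate sits between flexible linkers in a Bxb1-sfGFP-TEVs-SsrA fusion, so cleavage stabilises Bxb1 and speeds flipping of a recombination array, read by NGS. The value is the raw area under the fraction-flipped curve over 0-4 h after rhamnose induction (AUC4h), with ≥20 reads per time point. It is not background-subtracted; inactive controls average about 0.047.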
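Note: Bxb1 expression induced with 0.2% (w/v) L-rhamnose at OD600 near 0.5, cultures sampled hourly, flipped fraction per protease–substrate barcode pair counted by paired-end Illumina sequencing.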

## MGESLFKGPRDYNPISSSICHLTNESDGHTTSLYGIGFGPFIITNKHLFRRNNGTLVVQSLHGVFKVKDTTTLQQHLVDGRDMIIIRMPKDFPPFPQKLKFREPQMEERICLVTTNFQTKSMSSMVSDTSCTFPSGDGIFWKHWIQTKDGQCGSPLVSTRDGFIVGIHSASNFTNTNNYFTSVPKNFMELLTNQEAQQWVSGWRLNADSVLWGGHKVFMVKPEEPFQPVKEATQL [R106M]
  area with substrate ENLAFQS: 0.0658
  area with substrate ENLDFQS: 0.051
  area with substrate ENLEFQS: 0.0536
  area with substrate ENLFFQS: 0.12
  area with substrate ENLHFQS: 0.0617
  area with substrate ENLMFQS: 0.107
  area with substrate ENLQFQS: 0.0751
  area with substrate ENLRFQS: 0.109
  area with substrate ENLSFQS: 0.0391

## MGESLFKGPRDYNPISSSICHLTNESDGHTTSLYGIGFGPFIITNKHLFRRNNGTLVVQSLHGVFKVKDTTTLQQHLVDGRDMIIIRMPKDFPPFPQKLKFREPQYEERICLVTTNFQTKSMSSMVSDTSCTFPSGDGIFWKHWIQTKDGQCGSPLVSTRDGFIVGIHSASNFTNTNNYFTSVPKNFMELLTNQEAQQWVSGWRLNADSVLWGGHKVFMVKPEEPFQPVKEATQL [R106Y]
  area with substrate ENLAFQS: 0.0719
  area with substrate ENLCFQS: 0.0688
  area with substrate ENLDFQS: 0.0834
  area with substrate ENLEFQS: 0.0377
  area with substrate ENLFFQS: 0.0954
  area with substrate ENLGFQS: 0.0748
  area with substrate ENLHFQS: 0.104
  area with substrate ENLKFQS: 0.0782
  area with substrate ENLLFQS: 0.0626
  area with substrate ENLNFQS: 0.0594
  area with substrate ENLPFQS: 0.0287
  area with substrate ENLQFQS: 0.0445
  area with substrate ENLSFQS: 0.0617
  area with substrate ENLVFQS: 0.0867
  area with substrate ENLWFQS: 0.0502

## MGESLFKGPRDYNPISSSICHLTNESDGHTTSLYGIGFGPFIITNKHLFRRNNGTLVVQSLHGVFKVKDTTTLQQHLVDGRDMIIIRMPKDFPPFPQKLKLREPQREERICLVTTNFQTKSMSSMVSDTSCTFPSGDGIFWKHWIQTKDGQCGSPLVSTRDGFIVGIHSASNFTNTNNYFTSVPKNFMELLTNQEAQQWVSGWRLNADSVLWGGHKVFMVKPEEPFQPVKEATQL [F101L]
  area with substrate ENLAFQS: 0.0713
  area with substrate ENLFFQS: 0.0554
  area with substrate ENLIFQS: 0.0844
  area with substrate ENLKFQS: 0.0692
  area with substrate ENLNFQS: 0.0607
  area with substrate ENLPFQS: 0.0271
  area with substrate ENLQFQS: 0.0781
  area with substrate ENLWFQS: 0.0659

## MGESLFKGPRDYNPISSSICHLTNESDGHTTSLYGIGFGPFIITNKHLFRRNNGTLVVQSLHGVFKVKDTTTLQQHLVDGRDMIIIRMPKDFPPFPQKLKFREPQREERICLVTTNFDTKSMSSMVSDTSCTFPSGDGIFWKHWIQTKDGQCGSPLVSTRDGFIVGIHSASNFTNTNNYFTSVPKNFMELLTNQEAQQWVSGWRLNADSVLWGGHKVFMVKPEEPFQPVKEATQL [Q118D]
  area with substrate ENLAFQS: 0.0669
  area with substrate ENLDFQS: 0.0739
  area with substrate ENLEFQS: 0.0699
  area with substrate ENLFFQS: 0.0607
  area with substrate ENLGFQS: 0.0588
  area with substrate ENLIFQS: 0.0798
  area with substrate ENLKFQS: 0.0732
  area with substrate ENLPFQS: 0.0615
  area with substrate ENLRFQS: 0.0701
  area with substrate ENLSFQS: 0.052

## MGESLFKGPRDYNPISSSICHLTNESDGHTTSLYGIGFGPFIITNKHLFRRNNGTLVVQSLHGVFKVKDTTTLQQHLVDGRDMIIIRMPKDFPPFPQKLKFREPQREERICLVETNFQTKSMSSMVSDTSCTFPSGDGIFWKHWIQTKDGQCGSPLVSTRDGFIVGIHSASNFTNTNNYFTSVPKNFMELLTNQEAQQWVSGWRLNADSVLWGGHKVFMVKPEEPFQPVKEATQL [T114E]
  area with substrate ENLAFQS: 0.0709
  area with substrate ENLDFQS: 0.0624
  area with substrate ENLEFQS: 0.0554
  area with substrate ENLFFQS: 0.065
  area with substrate ENLHFQS: 0.0688
  area with substrate ENLIFQS: 0.0787
  area with substrate ENLLFQS: 0.0814
  area with substrate ENLPFQS: 0.0521
  area with substrate ENLVFQS: 0.0795
  area with substrate ENLWFQS: 0.0653

## MGESLFKGPRDYNPISSSICHLTNESDGHTTSLYGIGFGPFIITNKHLFRRNNGTLVVQSLHGVFKVKDTTTLQQHLVDGRDMIIIRMPKDFPPFPQKLKFREPQREERICLVITNFQTKSMSSMVSDTSCTFPSGDGIFWKHWIQTKDGQCGSPLVSTRDGFIVGIHSASNFTNTNNYFTSVPKNFMELLTNQEAQQWVSGWRLNADSVLWGGHKVFMVKPEEPFQPVKEATQL [T114I]
  area with substrate ENLAFQS: 0.0733
  area with substrate ENLDFQS: 0.0767
  area with substrate ENLEFQS: 0.0441
  area with substrate ENLGFQS: 0.0586
  area with substrate ENLHFQS: 0.0675
  area with substrate ENLIFQS: 0.0796
  area with substrate ENLKFQS: 0.0771
  area with substrate ENLLFQS: 0.0703
  area with substrate ENLMFQS: 0.0418
  area with substrate ENLNFQS: 0.0648
  area with substrate ENLPFQS: 0.0539
  area with substrate ENLQFQS: 0.0785
  area with substrate ENLRFQS: 0.0696
  area with substrate ENLSFQS: 0.0599
  area with substrate ENLTFQS: 0.0718

## MGESLFKGPRDYNPISSSICHLTNESDGHTTSLYGIGFGPFIITNKHLFRRNNGTLVVQSLHGVFKVKDTTTLQQHLVDGRDMIIIRMPKDFPPFPQKLKFREPQRRERICLVTTNFQTKSMSSMVSDTSCTFPSGDGIFWKHWIQTKDGQCGSPLVSTRDGFIVGIHSASNFTNTNNYFTSVPKNFMELLTNQEAQQWVSGWRLNADSVLWGGHKVFMVKPEEPFQPVKEATQL [E107R]
  area with substrate ENLAFQS: 0.0627
  area with substrate ENLDFQS: 0.067
  area with substrate ENLEFQS: 0.0685
  area with substrate ENLHFQS: 0.0684
  area with substrate ENLNFQS: 0.0735
  area with substrate ENLPFQS: 0.058
  area with substrate ENLSFQS: 0.0203
  area with substrate ENLVFQS: 0.0861

## MGESLFKGPRDYNPISSSICHLTNESDGHTTSLYGIGFGPFIITNKHLFRRNNGTLVVQSLHGVFKVKDTTTLQQHLVDGRDMIIIRMPKDFPPFPQKLKFREPQRPERICLVTTNFQTKSMSSMVSDTSCTFPSGDGIFWKHWIQTKDGQCGSPLVSTRDGFIVGIHSASNFTNTNNYFTSVPKNFMELLTNQEAQQWVSGWRLNADSVLWGGHKVFMVKPEEPFQPVKEATQL [E107P]
  area with substrate ENLAFQS: 0.0385
  area with substrate ENLDFQS: 0.0476
  area with substrate ENLEFQS: 0.07
  area with substrate ENLFFQS: 0.0733
  area with substrate ENLHFQS: 0.0753
  area with substrate ENLIFQS: 0.0679
  area with substrate ENLNFQS: 0.0649
  area with substrate ENLPFQS: 0.062
  area with substrate ENLQFQS: 0.0861
  area with substrate ENLRFQS: 0.0719
  area with substrate ENLWFQS: 0.087

## MGESLFKGPRDYNPISSSICHLTNESDGHTTSLYGIGFGPFIITNKHLFRRNNGTLVVQSLHGVFKVKDTTTLQQHLVDGRDMIIIRMPKDFPPFPQKLKFREPQREEVICLVTTNFQTKSMSSMVSDTSCTFPSGDGIFWKHWIQTKDGQCGSPLVSTRDGFIVGIHSASNFTNTNNYFTSVPKNFMELLTNQEAQQWVSGWRLNADSVLWGGHKVFMVKPEEPFQPVKEATQL [R109V]
  area with substrate ENLAFQS: 0.0517
  area with substrate ENLCFQS: 0.0663
  area with substrate ENLDFQS: 0.0595
  area with substrate ENLFFQS: 0.0813
  area with substrate ENLHFQS: 0.0696
  area with substrate ENLIFQS: 0.0761
  area with substrate ENLLFQS: 0.0788
  area with substrate ENLNFQS: 0.0841
  area with substrate ENLPFQS: 0.0706
  area with substrate ENLQFQS: 0.0621
  area with substrate ENLRFQS: 0.0575
  area with substrate ENLWFQS: 0.0593

## MGESLFKGPRDYNPISSSICHLTNESDGHTTSLYGIGFGPFIITNKHLFRRNNGTLVVQSLHGVFKVKDTTTLQQHLVDGRDMIIIRMPKDFPPFPQKLKFREPSREERICLVTTNFQTKSMSSMVSDTSCTFPSGDGIFWKHWIQTKDGQCGSPLVSTRDGFIVGIHSASNFTNTNNYFTSVPKNFMELLTNQEAQQWVSGWRLNADSVLWGGHKVFMVKPEEPFQPVKEATQL [Q105S]
  area with substrate ENLAFQS: 0.0746
  area with substrate ENLCFQS: 0.0815
  area with substrate ENLDFQS: 0.0634
  area with substrate ENLFFQS: 0.0803
  area with substrate ENLLFQS: 0.0747
  area with substrate ENLNFQS: 0.0528
  area with substrate ENLPFQS: 0.0581
  area with substrate ENLRFQS: 0.0677
  area with substrate ENLSFQS: 0.0596
